The values that follow come from the BET-seq Pho4 binding data (Le et al. 2018).

Some of the results follow. These are noisy estimates, calculated here from bound and input reads.

The experiment addresses T1, Pho4 (S. cerevisiae) (UniProt P07270).
T1 sequence: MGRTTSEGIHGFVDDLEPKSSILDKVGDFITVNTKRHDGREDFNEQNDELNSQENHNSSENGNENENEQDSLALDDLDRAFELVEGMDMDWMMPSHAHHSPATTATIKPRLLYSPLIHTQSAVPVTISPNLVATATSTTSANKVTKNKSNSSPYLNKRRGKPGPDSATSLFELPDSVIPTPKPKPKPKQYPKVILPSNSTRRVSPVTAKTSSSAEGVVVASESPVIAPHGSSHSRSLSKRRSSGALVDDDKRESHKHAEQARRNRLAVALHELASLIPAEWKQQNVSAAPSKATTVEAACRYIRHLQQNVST
Put plainly: relative binding free energy (BET-seq); higher = weaker binding. As to conditions: reference: library average.
With TTGAGCACGTGATTAA, the “relative binding free energy” value was 0.01 kcal/mol. On to AGTAACACGTGAATAT, for which the “relative binding free energy” value amounted to 0.41 kcal/mol. Regarding CAGGTCACGTGATTGT, the “relative binding free energy” value is 0.12 kcal/mol. With AGTTTCACGTGAGCTA the figure was 0.53 kcal/mol; with TGCTGCACGTGGCTGG, 0.03 kcal/mol; with TCGGTCACGTGTATAA, 0.24 kcal/mol.

On to TGTCCCACGTGTGTTT, for which the “relative binding free energy” value is -0.06 kcal/mol. With GAGTTCACGTGGGGCC the figure was 0.21 kcal/mol; with GTGGGCACGTGGCTCG, -0.12 kcal/mol. On to AGGTGCACGTGTGTTC, for which the “relative binding free energy” value is -0.01 kcal/mol. Regarding ATGGGCACGTGGACAT, the “relative binding free energy” value is -0.16 kcal/mol. With TTGTTCACGTGTGCTC the figure was 0.32 kcal/mol.

On to CCTGTCACGTGTAGGG, for which the “relative binding free energy” value came out at 0.09 kcal/mol. GGATGCACGTGGTGCT: the “relative binding free energy” value was -0.14 kcal/mol. With GTGGGCACGTGAATAA, the “relative binding free energy” value is 0.14 kcal/mol. Take GTTAACACGTGAGGTT: the “relative binding free energy” value worked out at 0.29 kcal/mol. As for TCTGGCACGTGGGGAA, the “relative binding free energy” value was -0.17 kcal/mol. For the sequence CTATTCACGTGTAAGG, the “relative binding free energy” value was 0.23 kcal/mol. The same measure for AAAGGCACGTGTTGCT: -0.12 kcal/mol; for GCGGGCACGTGAGGAT: 0.31 kcal/mol; for TGTATCACGTGCGTGT: 0.09 kcal/mol. With TACAACACGTGTTGGT the figure was -0.04 kcal/mol; with GGTGCCACGTGGGGGA, -0.17 kcal/mol; with TCGTGCACGTGCGGTG, -0.09 kcal/mol. For AGTTTCACGTGCGGTT, the “relative binding free energy” value was 0.23 kcal/mol. For the sequence GGAGGCACGTGATTGG, the “relative binding free energy” value amounted to 0.02 kcal/mol. With TTATTCACGTGACATT, the “relative binding free energy” value came out at 0.28 kcal/mol.

As to AGTGTCACGTGTTGAT, the “relative binding free energy” value was determined as 0.02 kcal/mol. Take CTTATCACGTGTGTAA: the “relative binding free energy” value stood at 0.15 kcal/mol. Turning to GGGTCCACGTGTATGA, the “relative binding free energy” value came to 0.06 kcal/mol. Turning to TGCCTCACGTGGAGTG, the “relative binding free energy” value amounted to 0.18 kcal/mol. The same measure for ATCTGCACGTGGGTGC: -0.18 kcal/mol. With GTAGTCACGTGGGGGC the figure was -0.06 kcal/mol; with GTTAACACGTGGGGGC, -0.13 kcal/mol. With CGTTGCACGTGGGGCT the figure was -0.29 kcal/mol; with TAAAGCACGTGATGGG, 0 kcal/mol. Consider TAACACACGTGTTGGT, for which the “relative binding free energy” value amounted to 0.12 kcal/mol. The same measure for CTGTGCACGTGGTAGG: -0.05 kcal/mol; for TGGAGCACGTGTGCAT: -0.06 kcal/mol; for TATCGCACGTGGTCGG: -0.15 kcal/mol.

TTTCACACGTGTAAAG: the “relative binding free energy” value came to 0.36 kcal/mol. The same measure for ATAGACACGTGGTGGA: 0.03 kcal/mol; for ATTAACACGTGGTAGT: -0.2 kcal/mol; for GGTTCCACGTGATTTT: 0.1 kcal/mol. With AGCGTCACGTGGTGTC the figure was -0.01 kcal/mol; with GGTTCCACGTGTGTTT, 0.18 kcal/mol; with CTTTTCACGTGCGTTG, 0.16 kcal/mol. The same measure for TAGTGCACGTGGGAGC: -0.04 kcal/mol; for TTAGTCACGTGGTTGT: 0.04 kcal/mol. As to GTTGGCACGTGTATTG, the “relative binding free energy” value came out at 0.04 kcal/mol.

Regarding CGTTACACGTGTTTGT, the “relative binding free energy” value stood at 0.03 kcal/mol.

Take CGGCGCACGTGGTGAG: the “relative binding free energy” value was -0.14 kcal/mol.

With GGAGTCACGTGTACTT, the “relative binding free energy” value amounted to 0.18 kcal/mol.

For the sequence TGGAGCACGTGGGTAT, the “relative binding free energy” value was -0.29 kcal/mol. Regarding CGTTGCACGTGAGGAT, the “relative binding free energy” value is 0.36 kcal/mol.

For TTTTTCACGTGAAATC, the “relative binding free energy” value was found to be 0.46 kcal/mol. Consider ATGTACACGTGGTTTT, for which the “relative binding free energy” value was 0.14 kcal/mol.

ATAGGCACGTGCTAGG: the “relative binding free energy” value is -0.27 kcal/mol.

Consider ACGTTCACGTGATTTG, for which the “relative binding free energy” value stood at 0.26 kcal/mol. With TTGTACACGTGTTGGG, the “relative binding free energy” value stood at 0.22 kcal/mol.

GTAAGCACGTGTTGTT: the “relative binding free energy” value was -0.02 kcal/mol.

For the sequence TCTGTCACGTGGTTGA, the “relative binding free energy” value is -0.02 kcal/mol.

On to TTCGACACGTGTGTTG, for which the “relative binding free energy” value turned out to be 0.06 kcal/mol.

As to TGGAGCACGTGGTAGT, the “relative binding free energy” value is -0.09 kcal/mol. For the sequence TTGTCCACGTGGGTAG, the “relative binding free energy” value was 0.05 kcal/mol.

On to TCTATCACGTGTTGTT, for which the “relative binding free energy” value turned out to be 0.22 kcal/mol. TTAAGCACGTGTTTCG: the “relative binding free energy” value was -0.25 kcal/mol. Consider ATAGTCACGTGATGAG, for which the “relative binding free energy” value was 0.13 kcal/mol.

For the sequence AGAGCCACGTGTTGTT, the “relative binding free energy” value amounted to 0.02 kcal/mol.

For TACGGCACGTGGTAGT, the “relative binding free energy” value was -0.29 kcal/mol. The same measure for GTTAGCACGTGGCATA: 0.01 kcal/mol; for CAAAGCACGTGGTTGG: -0.09 kcal/mol; for TGTGGCACGTGCCGGT: -0.21 kcal/mol. The same measure for TGGAGCACGTGGCCGG: -0.24 kcal/mol; for CTAGGCACGTGGGCGG: -0.28 kcal/mol. Consider GAGGGCACGTGGGGGC, for which the “relative binding free energy” value was -0.18 kcal/mol.

Consider GGTTTCACGTGGGTGT, for which the “relative binding free energy” value was 0.25 kcal/mol.

Consider GTACGCACGTGTGTCG, for which the “relative binding free energy” value was -0.03 kcal/mol. With TGTAGCACGTGTGATG the figure was 0.1 kcal/mol.

Consider ATTAGCACGTGTATGG, for which the “relative binding free energy” value is -0.06 kcal/mol. On to AGGTACACGTGGCGGG, for which the “relative binding free energy” value amounted to 0.04 kcal/mol. As to TTAATCACGTGTGCGG, the “relative binding free energy” value came out at 0.11 kcal/mol. With GGGGTCACGTGCCTGG the figure was 0 kcal/mol; with TGTTTCACGTGTATAT, 0.32 kcal/mol. As for GTCGGCACGTGTTTAG, the “relative binding free energy” value came to 0 kcal/mol. AGTCTCACGTGGTAGG: the “relative binding free energy” value is 0.17 kcal/mol.

Consider GGTTGCACGTGCAATT, for which the “relative binding free energy” value stood at 0.03 kcal/mol. AATAACACGTGATTGG: the “relative binding free energy” value was 0.09 kcal/mol.

With TGATGCACGTGGAAGG, the “relative binding free energy” value was determined as 0.13 kcal/mol.

For GATAGCACGTGCTGGG, the “relative binding free energy” value was -0.08 kcal/mol.

Consider AGGGACACGTGGTCGA, for which the “relative binding free energy” value was -0.01 kcal/mol. With TGTTCCACGTGTCGAT the figure was 0.22 kcal/mol; with AGTACCACGTGATGTT, 0.09 kcal/mol. TGGTTCACGTGTTAAT: the “relative binding free energy” value came to 0.31 kcal/mol. The same measure for ATTGTCACGTGAATGA: 0.26 kcal/mol; for GTGTTCACGTGGGATC: 0.32 kcal/mol; for GAGTTCACGTGGCGTT: 0.33 kcal/mol.

With GACTGCACGTGGGCTG, the “relative binding free energy” value was 0.06 kcal/mol. For GTGGTCACGTGTGTGA, the “relative binding free energy” value amounted to 0.18 kcal/mol.

With GTTTACACGTGTGTAT, the “relative binding free energy” value is 0.1 kcal/mol. Consider TGGTTCACGTGGCTTC, for which the “relative binding free energy” value amounted to 0.26 kcal/mol. As for TCTTGCACGTGTATGG, the “relative binding free energy” value was -0.03 kcal/mol. As to AATGTCACGTGCTTGG, the “relative binding free energy” value was -0.06 kcal/mol. The same measure for AGTGACACGTGGGAAG: -0.12 kcal/mol. With TGGTGCACGTGCAGCG the figure was 0.08 kcal/mol; with GGTTACACGTGAGATT, 0.24 kcal/mol; with GTATTCACGTGTTGTC, 0.17 kcal/mol. With TTGTCCACGTGGTGCG the figure was -0.04 kcal/mol; with CGAAGCACGTGTGGGG, -0.04 kcal/mol. Turning to TTTAGCACGTGAGAAT, the “relative binding free energy” value worked out at 0.09 kcal/mol.

Turning to TCCGTCACGTGGGGCG, the “relative binding free energy” value amounted to 0.01 kcal/mol. On to ATTATCACGTGTGTGG, for which the “relative binding free energy” value was found to be 0.16 kcal/mol. Regarding AAGGTCACGTGGAGAA, the “relative binding free energy” value turned out to be 0.16 kcal/mol. The same measure for GAAGTCACGTGTGGTT: 0.32 kcal/mol.

With TTTTTCACGTGTTATA, the “relative binding free energy” value was 0.22 kcal/mol.
